Data: paper PMC12136788
This is one part of the list.

B1: chr13:100193624:100193625:-_ENSMUSG00000052727_ENSMUST00000064762|mus_hu|motif|central (ssRNA)
RNA: GGGAGUUCUACAGUCCGACGAUCUAAACCCUCAUCAUAGUUAGCAGUGCAAAACAUAGACUUAUCAGACAAAAAUCAACGGAAAUGUUAAUUUUGAAAUAAAUAACUAACAUAGAAAAUAAAAUGAGGUCAUUGUUCUCUACUCAACAGAGGAUUGAGCAUCA
B2: 114299371_114299925_1475_CDS_ENSMUSG00000021143_ENSMUST00000084891|mouse|control|control (ssRNA)
RNA: GGGAGUUCUACAGUCCGACGAUCAAUGAUAUUCUCGGGGAGUUGGUCAUCAGAGAUGAGGAUGUGGUUCAAUUGGUCAUACACAGUUUUCCUGGGAAUCUGAAGCUGGCUCCUCGUGUCUGGACAGCGCUCAUUGUCUAGGCUCAACAGAGGAUUGAGCAUCA
B3: chr7:102939105:102939106:+_ENSG00000105819_ENST00000453466|hu_hu|motif|central (ssRNA)
RNA: GGGAGUUCUACAGUCCGACGAUCUCCAACUGUGCAUGUUGAGAGCCCAGAGUCUUCCGAAGCUACUCUGAGUCCACUUUCGGAACAUGUUACUCUUGUUUCAGGAACAUUCAGAACAACUUGGGUAGCAGCCUGUGUACUUCUCAACAGAGGAUUGAGCAUCA
B4: chr7:141445308:141445309:+_ENSG00000106028_ENST00000265304|hu_hu|hu_hu_hu_mus_False|8_58 (ssRNA)
RNA: GGGAGUUCUACAGUCCGACGAUCUAUGAUUGUUGUUGCUUGCCGCCUCACAUUGUUUUUAUCCAUGUACUCGCCAUAGUCUAUUUUCCCUUCCACAAAUAUACGAGCCCCCUUUUUCACAUACUGAUAUGCCACGUCUCUGAGCAACAGAGGAUUGAGCAUCA
B5: chr8:125590379:125590380:+_ENSMUSG00000000738_ENSMUST00000108868|mus_mus|FALSE|FALSE (ssRNA)
RNA: GGGAGUUCUACAGUCCGACGAUCUCUGACUGCAUUUGGAACUAUAUGCUGUUUCAGUAACAAUCCGCUAAUACCUUCAAAGCUAGGGGUCAGUAUUCGCAAUAGCAAACUCUGAGGCGCGUGGCCUCCAGCCGCAGCCGGGCCCAACAGAGGAUUGAGCAUCA
B6: chr2:65473824:65473825:+_ENSG00000138071_ENST00000260641|hu_hu|FALSE|FALSE (ssRNA)
RNA: GGGAGUUCUACAGUCCGACGAUCGUUUUUGGUUGGGUUCAUAGGAGGUUCUGUGAGUAAGAUUUUACAAUUUCUGGUAUCUAUAUUAAGUUUCUCUGGUCCAAAUGUGUAGUCCCACAGGUGUUUCAUGUCAUCCCAAUUUCGCAACAGAGGAUUGAGCAUCA

Target: T1, UNK ZnF1-3 (human, UniProt Q9C0B0 31-174)
T1 sequence: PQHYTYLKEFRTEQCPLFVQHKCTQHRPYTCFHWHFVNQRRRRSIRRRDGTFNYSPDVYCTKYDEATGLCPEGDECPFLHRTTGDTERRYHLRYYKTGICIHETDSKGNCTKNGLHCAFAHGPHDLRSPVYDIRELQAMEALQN
Assay: nsRBNS (natural sequence RNA bind-n-seq); RBNS binding buffer (assumed for nsRBNS): 25 mM Tris pH 7.5, 150 mM KCl, 3 mM MgCl2, 0.01% Triton X-100, 500 ug/ml BSA, 20 U/ml SUPERase-In, 4 C; UNK is unkempt and MSI1 is Musashi-1; names of the RNAs are library labels; protein concentration not given here; high values mean tight binding

**Q.** Which binding signal does the source give for B1 here?
**A.** 1.37 enrichment R

**Q.** Which binding signal does the source give for B2 here?
**A.** 0.839 enrichment R

**Q.** B3 was tested. Which binding signal did it give?
**A.** 0.607 enrichment R

**Q.** B4 was tested. Which binding signal did it give?
**A.** 0.52 enrichment R

**Q.** With B5 as the binder, how does the binding signal read?
**A.** 0.744 enrichment R

**Q.** Which binding signal does the source give for B6 here?
**A.** 0.707 enrichment R
